Article PMC4336329 (PLoS ONE, 2015)
Hit rate of the full screen: of about 310,000 compounds, about 2,200 (0.71%) showed an effect of 50% or more. The effect is printed as a negative number. Some of the results follow.

Biological target: human ether-à-go-go-related gene (hERG) potassium channel (human, UniProt Q12809)
Assay: primary screen, population patch clamp on CHO cells stably expressing hERG

human ether-à-go-go-related gene (hERG) potassium channel, sequence (Q12809 whole entry, looked up): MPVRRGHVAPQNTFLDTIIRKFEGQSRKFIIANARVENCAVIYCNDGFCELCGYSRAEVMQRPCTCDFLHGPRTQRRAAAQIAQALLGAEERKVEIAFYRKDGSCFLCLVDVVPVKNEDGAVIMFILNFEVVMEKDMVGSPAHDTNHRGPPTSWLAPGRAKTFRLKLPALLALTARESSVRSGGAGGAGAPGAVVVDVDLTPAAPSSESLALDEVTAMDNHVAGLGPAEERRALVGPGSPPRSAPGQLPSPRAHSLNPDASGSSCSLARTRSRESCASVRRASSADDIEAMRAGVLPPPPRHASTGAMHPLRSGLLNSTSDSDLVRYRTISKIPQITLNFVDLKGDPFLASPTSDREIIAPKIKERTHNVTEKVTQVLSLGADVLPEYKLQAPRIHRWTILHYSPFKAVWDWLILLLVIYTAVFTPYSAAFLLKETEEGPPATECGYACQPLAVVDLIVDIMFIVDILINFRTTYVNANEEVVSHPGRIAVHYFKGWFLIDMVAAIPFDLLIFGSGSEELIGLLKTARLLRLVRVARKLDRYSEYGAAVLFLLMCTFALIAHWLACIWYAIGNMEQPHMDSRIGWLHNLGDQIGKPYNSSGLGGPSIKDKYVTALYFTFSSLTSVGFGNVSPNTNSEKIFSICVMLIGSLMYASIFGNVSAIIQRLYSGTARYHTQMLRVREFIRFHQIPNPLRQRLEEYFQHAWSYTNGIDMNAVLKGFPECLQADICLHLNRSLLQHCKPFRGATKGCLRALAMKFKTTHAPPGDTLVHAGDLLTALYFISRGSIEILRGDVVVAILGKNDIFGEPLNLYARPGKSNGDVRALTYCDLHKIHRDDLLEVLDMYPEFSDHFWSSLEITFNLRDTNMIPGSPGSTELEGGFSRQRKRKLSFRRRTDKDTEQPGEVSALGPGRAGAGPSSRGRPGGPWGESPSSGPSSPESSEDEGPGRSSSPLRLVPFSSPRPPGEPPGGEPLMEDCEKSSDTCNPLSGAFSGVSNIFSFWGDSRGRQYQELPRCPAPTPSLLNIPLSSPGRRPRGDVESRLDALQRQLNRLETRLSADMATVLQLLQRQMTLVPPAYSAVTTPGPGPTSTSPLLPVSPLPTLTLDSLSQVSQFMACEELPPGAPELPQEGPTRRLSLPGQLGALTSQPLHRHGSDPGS

SMILES | hERG current change (%, negative = inhibition) at 1uM
CC(=O)N(Cc1ccccc1)Cc1cn(CCC#N)nc1-c1cccc([N+](=O)[O-])c1 | 1.58%
O=C(NCc1ccc(F)cc1)C(c1ccc(F)cc1)N(C(=O)c1csnn1)C1CC1 (stereo not drawn) | 12.9%
CCN(c1cccc(C)c1)S(=O)(=O)c1nnc(NC(=O)c2ccco2)s1 | 2.7%
CCOc1ncccc1C(=O)Nc1ccccc1F | 8.01%
Cc1ccc2oc(C(=O)N(C)CCC(O)c3ccccc3)c(C)c2c1 (stereo not drawn) | 14.4%
O=c1oc(-c2ccccc2)nc2c1cnn2-c1ccccc1 | 9.63%
CCOC(=O)[C@H]1[C@H]2COc3cc(OC)ccc3[C@@H]2N2C(=O)CN(CCc3c[nH]c4ccccc34)C(=O)[C@@]12C | 12.7%
Cc1nnc(SCC(=O)Nc2ccccc2F)n(N)c1=O | 6.24%
CSc1ccccc1C(=O)NC1CCCN(c2ccc(C(F)(F)F)cn2)C1 (stereo not drawn) | 6.58%
Cn1cnnc1SCC(=O)Nc1ccccc1C(=O)NC1CCCC1 | 4.57%
OCCSc1nc2ccccc2n1CCOc1ccccc1 | 14.8%
Cc1cccn2c(=O)c(/C=C(\C#N)C(=O)NCc3ccco3)c(N3CCCCC3)nc12 | -10.2%
Cc1ccc(S(=O)(=O)N2CCCCC2)cc1NC(=O)c1cc2ccccc2o1 | 12.2%
Cc1ccc(-n2c(CNc3ccc(F)cc3)nnc2SCC(=O)NCc2ccco2)cc1 | 2.89%
CC(=O)N1CCc2cc(S(=O)(=O)NC(CC(C)C)C(=O)N3CCCC3)ccc21 (stereo not drawn) | 13.1%
O=C(OCC(=O)N1CCCC1)c1cc([N+](=O)[O-])ccc1Cl | 12.1%
O=C(Nc1ccn(Cc2c(F)c(F)cc(F)c2F)n1)c1ccc(COc2cc(Cl)ccc2Cl)o1 | 2.31%
COCCCNC(=O)COc1ccc(Cl)c(C)c1 | -0.487%
O=C(NCCS(=O)(=O)N1CCN(c2ccccc2)CC1)C1CC(=O)N(c2ccc(F)cc2)C1 (stereo not drawn) | -0.544%
O=C(Nc1ccc(C(=O)N2CCCC2)cc1)c1ccc2c(c1)OCO2 | 1.71%
CN(Cc1ccccc1)C(=O)c1nc2ccccn2c1CNCCCOc1cccnc1 | -29.5%
Cn1c(=O)c2c(nc(NCCNC(=O)c3ccco3)n2Cc2ccccc2F)n(C)c1=O | 3.9%
COc1ccc(NC(=O)C2CCN(S(=O)(=O)c3ccc4c(c3)NC(=O)CO4)CC2)cc1 | 15%

SMILES | hERG current change (%, negative = inhibition) at 1uM
COc1ccccc1NC(=O)/C=C1\SCC(=O)N1C | 2.4%
CCCN(CC(=O)Nc1cc(Cl)ccc1Cl)C(=O)CN1C(=O)C2CCCCC2C1=O (stereo not drawn) | -9.8%
COc1ccc(Cn2cc(F)c(=O)n(C)c2=O)cc1[N+](=O)[O-] | 3.08%
Cc1nn(Cc2ccccc2)c(C)c1NC(=O)CCCn1nc([N+](=O)[O-])cc1C | 11.9%
COc1ccc(C(=O)N/C(=C\c2cccc3ccccc23)C(=O)NCCc2c[nH]c3ccccc23)cc1OC | -0.582%
CCOc1nc(-c2ccccc2)ccc1-c1noc(COC)n1 | 16%
COc1ccccc1C(=O)NC(CCSC)C(=O)NCc1ccccn1 (stereo not drawn) | -6.78%
COc1ccc(Cl)cc1C(=O)Nc1cccc(-c2ccc3nncn3n2)c1 | 3.92%
CC1CC(=O)C2=C(C1)Nc1ccccc1N(C(=O)COc1ccccc1)C2c1ccco1 (stereo not drawn) | -1.53%
O=C(O)c1cc(/C=C/c2ccc(N3CCOCC3)cc2)nc2ccccc12 | 1.41%
Cc1ccc(NC(=O)/C=C/c2ccc3c(c2)OCO3)nc1 | 3.7%
N#Cc1ccc(OCC(=O)Nc2cc(S(=O)(=O)N3CCCCC3)ccc2N2CCCCC2)cc1 | -5.18%
CCS(=O)(=O)N1CCN(S(=O)(=O)c2ccc3ccccc3c2)CC1 | 13%
O=C(NCc1ccccc1)C(=O)NCC1OCCN1C(=O)c1cccs1 (stereo not drawn) | -54.6%
CC1(C)CC(NC(=S)NCc2ccco2)CC(C)(C)N1 | 6.74%
CC(=O)Nc1ccc2sc(C)nc2c1 | 8.83%
COc1ccccc1/C=N/NC(=S)Nc1cccnc1 | 11%
Cc1cc(C(=O)CCC(=O)N(C)CC(=O)Nc2c(Cl)cccc2Cl)c(C)s1 | 2.1%
CCn1c(SCC(=O)c2[nH]c(C)c(C(C)=O)c2C)nnc1-c1ccccc1 | -2.15%
COc1cc(CCC(=O)OCC(=O)Nc2ccc(C(N)=O)cc2)cc(OC)c1OC | 12.9%
Cn1c(=S)[nH]c2cccnc21 | 11%
CC(C)NC(=O)C1(S(=O)(=O)c2ccccc2)CC=CC1 | 4.45%
O=C(Cc1cccc(NC(=O)C2CCCN(C(=O)C3CCCCC3)C2)c1)Nc1cccc(C(=O)N2CCCC2)c1 (stereo not drawn) | 0.382%

SMILES | hERG current change (%, negative = inhibition) at 1uM
CC(OC(=O)/C=C/c1ccc2ccccc2n1)C(=O)N(C)c1ccccc1 (stereo not drawn) | 13.7%
Cc1c(Cl)c([N+](=O)[O-])nn1CC(=O)NCC1CCCO1 (stereo not drawn) | 10.3%
CCn1c(CCNC(=O)c2ccc(OC)c(OC)c2)nc2ccccc21 | -9.78%
CSc1nn(CCc2ccncc2)c(=S)s1 | 9.15%
Cc1ccc2c(c1)N(C(=O)CCC(=O)NCc1ccccc1)CC(C)O2 (stereo not drawn) | 4.18%
CCOC(=O)c1cnc(N)nc1C(F)(F)F | -2.92%
COc1ccccc1-n1c(-c2ccccc2)n[nH]c1=S | 12.2%
Br.CCCCCCC1CC(CSC(=N)N)OC1=O (stereo not drawn) | -14.2%
CCN(C1CCCCC1)S(=O)(=O)CCNC(=O)c1ccccc1 | 2.25%
O=C(c1ccc(-c2ccccc2)cc1)N1CCN(c2ccccn2)CC1 | 3.81%
CC(=O)c1ccc(Nc2cc(C)nc3ccc(C)cc23)cc1 | -53.2%
CCOc1ccc(NC(=O)CN(C)C(=O)c2ccc(=O)[nH]c2)cc1OCC | 8.05%
O=C(/C=C/c1ccccc1)NC(=S)NNC(=O)Cc1cccs1 | 14.5%
COC(=O)c1ccc[n+](CC(=O)Nc2ccc(OC(F)F)cc2)c1.[Cl-] | 6.13%
CCCCN1C(Nc2ccccc2)=NC[C@@H]1Cc1ccccc1 | -44.2%
O=C(Nc1cccc(Cl)c1)c1ccc(OC(=S)N2CCOCC2)cc1 | 23.2%
COC(=O)[C@H](CC(C)C)NC(=O)N1CCCCC1C (stereo partly drawn) | 13.1%
CCCn1c2ccccc2c2cnn(CC(=O)NCCCOC)c(=O)c21 | 13.7%
Cc1csc(NC(=O)C2CCCCC2C(=O)O)n1 (stereo not drawn) | 13.3%
COc1ccccc1C(=O)Nc1nc(-c2ccc(S(=O)(=O)N3CCOCC3)cc2)cs1 | 8.35%
NC(=O)CSc1nccn1Cc1ccc(Cl)cc1 | 1.89%
Cc1nnc(NC(=O)CSc2nc3ccccc3[nH]2)s1 | 26.9%
CC(=O)OC1CCC2(C)C(COc3ccc4ccc(=O)oc4c3)C(C)(O)CCC2C1(C)C (stereo not drawn) | 3.1%

SMILES | hERG current change (%, negative = inhibition) at 1uM
OC1(c2ccc(F)cc2)CCN(Cc2cccnc2)CC1 | 11%
CC(C)(C)OC(=O)CN1C(=O)NC(Cc2c[nH]c3ccccc23)C1=O (stereo not drawn) | 8.66%
CCC(CC)C(=O)NCc1ccc2c(c1)cc(C)n2C | 6.39%
CC(CCc1ccccc1)NCC(O)c1cccc([N+](=O)[O-])c1.Cl (stereo not drawn) | -8.42%
CCc1cccc(CC)c1NC(=O)c1cccc(S(=O)(=O)N2CCN(C)CC2)c1 | 10.2%
C/C(=N\N)c1c(-c2ccccc2)c2cc(C)ccc2[nH]c1=O | 2.39%
CC1=C(C(=O)OC2CCCC(C)C2)C(c2ccccc2)NC(=O)N1 (stereo not drawn) | 1.22%
COc1cc(OC)cc(OC(=O)C2CCN(C(=O)c3ccc(Cl)cc3)CC2)c1 | 13.5%
CN=C1SC(CC(=O)Nc2ccccc2F)C(=O)N1/N=C/c1ccc(O)c(OC)c1 (stereo not drawn) | 1.77%
Nc1c(C(=O)NCc2ccco2)nnn1-c1ccccc1 | 14.1%
Cc1cc(S(=O)(=O)N2CCOCC2)ccc1OCC(=O)NCCN1CCOCC1 | 9.5%
CCc1ncc(CN2CCC(C(=O)Nc3ccc(-n4nc(C)cc4C)cc3)CC2)cn1 | 3.54%
N#C/C(=C(/O)c1ccc(F)cc1)c1nc2ccccc2s1 | 15.3%
CCN(c1cccc(C)c1)S(=O)(=O)c1cc(CN2C(=O)c3cccnc3C2=O)ccc1OC | 10.4%
CC(c1cc2ccccc2s1)N(O)C(N)=O (stereo not drawn) | 2.59%
C=CCOc1ccc(/C(CC)=N/O)c(OC)c1 | -0.148%
Cc1c(C(=O)Nc2nc3ccccc3[nH]2)oc2ccc(Br)cc12 | 3.39%
Cc1[nH][nH]c(=O)c1N=Nc1ccc(S(N)(=O)=O)cc1 | 10.6%
Cc1cccc(NC(=O)Cc2noc3ccccc23)c1C | 3.42%
CC(C)C[C@H](NC(=O)N1CCCCCC1)C(=O)O | 7.47%
Cc1ccc(S(=O)(=O)CC(CN2CCOCC2)N2CCOCC2)cc1 (stereo not drawn) | 13%
